The list shows a part of the results.
Experiments:
Test in all cases: glycan array binding signal (z-score within array); higher = stronger binding
Details in all cases: glycan notation: IUPAC condensed, linker removed
[1] = target: Fuc(a1-3)[Gal3S(b1-4)]GlcNAc
Summary of the method: (§1)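 The Consortium for Functional Glycomics database supplied 3228 glycan arrays, of which those lacking an available protein sequence were dropped. The binding signal, a within-array Z-score, was averaged across arrays of the same protein sequence and across linkers. Negative scores can be read as non-binding.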

[2] = target: Fuc(a1-3)[Gal3S(b1-4)]GlcNAc6S
Summary of the method: as §1

[3] = target: Fuc(a1-3)[GalNAc(b1-4)]GlcNAc
Summary of the method: as §1

[4] = target: Fuc(a1-3)[GalNAc(b1-4)]GlcNAc6S
Summary of the method: as §1

Fuc(a1-4)GlcNAc = target: Fuc(a1-4)GlcNAc
Summary of the method: as §1

Fuc(b1-3)GlcNAc = target: Fuc(b1-3)GlcNAc
Summary of the method: as §1

Gal(a1-2)Gal = target: Gal(a1-2)Gal
Summary of the method: as §1

Gal(a1-3)Gal = target: Gal(a1-3)Gal
Summary of the method: as §1

Gal(a1-3)Gal(b1-3)GlcNAc = target: Gal(a1-3)Gal(b1-3)GlcNAc
Summary of the method: as §1

[5] = target: Gal(a1-3)Gal(b1-3)GlcNAc(b1-2)Man
Summary of the method: as §1

[6] = target: Gal(a1-3)Gal(b1-3)GlcNAc(b1-2)Man(a1-3)[Gal(a1-3)Gal(b1-3)GlcNAc(b1-2)Man(a1-6)]Man(b1-4)GlcNAc(b1-4)GlcNAc
Summary of the method: as §1

[7] = target: Gal(a1-3)Gal(b1-3)GlcNAc(b1-3)GalNAc
Summary of the method: as §1

[8] = target: Gal(a1-3)Gal(b1-3)GlcNAc(b1-6)GalNAc
Summary of the method: as §1

[9] = target: Gal(a1-3)Gal(b1-3)[Fuc(a1-4)]GlcNAc(b1-2)Man(a1-3)[Gal(a1-3)Gal(b1-3)[Fuc(a1-4)]GlcNAc(b1-2)Man(a1-6)]Man(b1-4)GlcNAc(b1-4)GlcNAc
Summary of the method: as §1

Gal(a1-3)Gal(b1-4)Glc = target: Gal(a1-3)Gal(b1-4)Glc
Summary of the method: as §1

Gal(a1-3)Gal(b1-4)GlcNAc = target: Gal(a1-3)Gal(b1-4)GlcNAc
Summary of the method: as §1

[10] = target: Gal(a1-3)Gal(b1-4)GlcNAc(b1-2)Man
Summary of the method: as §1

[11] = target: Gal(a1-3)Gal(b1-4)GlcNAc(b1-2)Man(a1-3)[Gal(a1-3)Gal(b1-4)GlcNAc(b1-2)Man(a1-6)]Man(b1-4)GlcNAc(b1-4)GlcNAc
Summary of the method: as §1

[12] = target: Gal(a1-3)Gal(b1-4)GlcNAc(b1-3)GalNAc
Summary of the method: as §1

[13] = target: Gal(a1-3)Gal(b1-4)GlcNAc(b1-6)GalNAc
Summary of the method: as §1

[14] = target: Gal(a1-3)Gal(b1-4)[Fuc(a1-3)]GlcNAc
Summary of the method: as §1

[15] = target: Gal(a1-3)Gal(b1-4)[Fuc(a1-3)]GlcNAc(b1-2)Man(a1-3)[Gal(a1-3)Gal(b1-4)[Fuc(a1-3)]GlcNAc(b1-2)Man(a1-6)]Man(b1-4)GlcNAc(b1-4)GlcNAc
Summary of the method: as §1

Gal(a1-3)GalNAc = target: Gal(a1-3)GalNAc
Summary of the method: as §1

[16] = target: Gal(a1-3)[Gal(a1-4)]Gal(b1-4)GlcNAc
Summary of the method: as §1

[17] = target: Gal(a1-4)Gal(b1-3)GlcNAc(b1-2)Man(a1-3)[Gal(a1-4)Gal(b1-3)GlcNAc(b1-2)Man(a1-6)]Man(b1-4)GlcNAc(b1-4)GlcNAc
Summary of the method: as §1

Gal(a1-4)Gal(b1-4)Glc = target: Gal(a1-4)Gal(b1-4)Glc
Summary of the method: as §1

Gal(a1-4)Gal(b1-4)GlcNAc = target: Gal(a1-4)Gal(b1-4)GlcNAc
Summary of the method: as §1

[18] = target: Gal(a1-4)Gal(b1-4)GlcNAc(b1-2)Man(a1-3)[Gal(a1-4)Gal(b1-4)GlcNAc(b1-2)Man(a1-6)]Man(b1-4)GlcNAc(b1-4)GlcNAc
Summary of the method: as §1

[19] = target: Gal(a1-4)Gal(b1-4)GlcNAc(b1-3)Gal(b1-4)Glc
Summary of the method: as §1

Gal(a1-4)GlcNAc = target: Gal(a1-4)GlcNAc
Summary of the method: as §1

Gal(a1-6)Glc = target: Gal(a1-6)Glc
Summary of the method: as §1

Gal(b1-2)Gal = target: Gal(b1-2)Gal
Summary of the method: as §1

Gal(b1-3)Gal = target: Gal(b1-3)Gal
Summary of the method: as §1

Gal(b1-3)Gal(b1-4)GlcNAc = target: Gal(b1-3)Gal(b1-4)GlcNAc
Summary of the method: as §1

Gal(b1-3)GalNAc = target: Gal(b1-3)GalNAc
Summary of the method: as §1

[20] = target: Gal(b1-3)GalNAc(a1-3)[Fuc(a1-2)]Gal(b1-4)Glc
Summary of the method: as §1

[21] = target: Gal(b1-3)GalNAc(a1-3)[Fuc(a1-2)]Gal(b1-4)GlcNAc
Summary of the method: as §1

Gal(b1-3)GalNAc(b1-3)Gal = target: Gal(b1-3)GalNAc(b1-3)Gal
Summary of the method: as §1

[22] = target: Gal(b1-3)GalNAc(b1-3)Gal(a1-4)Gal(b1-4)Glc
Summary of the method: as §1

[23] = target: Gal(b1-3)GalNAc(b1-4)Gal(b1-4)Glc
Summary of the method: as §1

[24] = target: Gal(b1-3)GalNAc(b1-4)[Neu5Ac(a2-3)]Gal(b1-4)Glc
Summary of the method: as §1

Gal(b1-3)GlcNAc = target: Gal(b1-3)GlcNAc
Summary of the method: as §1

[25] = target: Gal(b1-3)GlcNAc(a1-3)Gal(b1-4)GlcNAc
Summary of the method: as §1

[26] = target: Gal(b1-3)GlcNAc(a1-6)Gal(b1-4)GlcNAc
Summary of the method: as §1

Gal(b1-3)GlcNAc(b1-2)Man = target: Gal(b1-3)GlcNAc(b1-2)Man
Summary of the method: as §1

B1: DC-ASGPR L+GEE (Homo sapiens) (protein)
chain: MTRTYENFQYLENKVKVQGFKNGPLPLQSLLQRLRSGPCHLLLSLGLGLLLLVIICVVGFQNSKFQRDLVTLRTDFSNFTSNTVAEIQALTSQGSSLEETIASLKAEVEGFKQERQAGVSELQEHTTQKAHLGHCPHCPSVCVPVHSEMLLRVQQLVQDLKKLTCQVATLNNNGEEASTEGTCCPVNWVEHQDSCYWFSHSGMSWAEAEKYCQLKNAHLVVINSREEQNFVQKYLGSAYTWMGLSDPEGAWKWVDGTDYATGFQNWKPGQPDDWQGHGLGGGEDCAHFHPDGRWNDDVCQRPYHWVCEAGLGQTSQESH
[1]
  glycan array binding signal (z-score): -0.343
[2]
  glycan array binding signal (z-score): 0.21
[3]
  glycan array binding signal (z-score): 1.22
[4]
  glycan array binding signal (z-score): 0.838
Fuc(a1-4)GlcNAc
  glycan array binding signal (z-score): -0.09
Fuc(b1-3)GlcNAc
  glycan array binding signal (z-score): -0.237
Gal(a1-2)Gal
  glycan array binding signal (z-score): -0.199
Gal(a1-3)Gal
  glycan array binding signal (z-score): 0.243
Gal(a1-3)Gal(b1-3)GlcNAc
  glycan array binding signal (z-score): -0.123
[5]
  glycan array binding signal (z-score): -0.414
[6]
  glycan array binding signal (z-score): -0.423
[7]
  glycan array binding signal (z-score): -0.315
[8]
  glycan array binding signal (z-score): 2.34
[9]
  glycan array binding signal (z-score): -0.455
Gal(a1-3)Gal(b1-4)Glc
  glycan array binding signal (z-score): -0.207
Gal(a1-3)Gal(b1-4)GlcNAc
  glycan array binding signal (z-score): -0.402
[10]
  glycan array binding signal (z-score): -0.585
[11]
  glycan array binding signal (z-score): -0.425
[12]
  glycan array binding signal (z-score): -0.237
[13]
  glycan array binding signal (z-score): 3.21
[14]
  glycan array binding signal (z-score): -0.544
[15]
  glycan array binding signal (z-score): 0.091
Gal(a1-3)GalNAc
  glycan array binding signal (z-score): -0.254
[16]
  glycan array binding signal (z-score): -0.371
[17]
  glycan array binding signal (z-score): -0.042
Gal(a1-4)Gal(b1-4)Glc
  glycan array binding signal (z-score): -0.702
Gal(a1-4)Gal(b1-4)GlcNAc
  glycan array binding signal (z-score): -0.409
[18]
  glycan array binding signal (z-score): -0.427
[19]
  glycan array binding signal (z-score): -1.03
Gal(a1-4)GlcNAc
  glycan array binding signal (z-score): 0.107
Gal(a1-6)Glc
  glycan array binding signal (z-score): 0.01
Gal(b1-2)Gal
  glycan array binding signal (z-score): -0.162
Gal(b1-3)Gal
  glycan array binding signal (z-score): 0.294
Gal(b1-3)Gal(b1-4)GlcNAc
  glycan array binding signal (z-score): -0.467
Gal(b1-3)GalNAc
  glycan array binding signal (z-score): -0.211
[20]
  glycan array binding signal (z-score): -0.007
[21]
  glycan array binding signal (z-score): -0.615
Gal(b1-3)GalNAc(b1-3)Gal
  glycan array binding signal (z-score): -0.534
[22]
  glycan array binding signal (z-score): 0.427
[23]
  glycan array binding signal (z-score): -0.69
[24]
  glycan array binding signal (z-score): 1.04
Gal(b1-3)GlcNAc
  glycan array binding signal (z-score): -0.018
[25]
  glycan array binding signal (z-score): 0.167
[26]
  glycan array binding signal (z-score): -0.332
Gal(b1-3)GlcNAc(b1-2)Man
  glycan array binding signal (z-score): -0.26

Source: the supplement of paper PMC8728848
